# Experimental data as given in PubChem BioAssay AID485281 (National Center for Advancing Translational Sciences (NCATS), 2010).
# Hit rate of the full screen: of about 350,000 compounds, about 260 (0.074%) were called active. Inconclusive means that the source gave no clear call. Such entries were picked first, then a sample of the others. The call rests on the fitted dose curve; in most records, active means well fitted inhibition curve with a large enough effect; inconclusive means small, poorly fitted or top-dose-only effect; inactive means no such curve, though single readings can be large or run the other way. Potencies of inconclusive entries are doubtful fits and often do not repeat.
# Biological target: Ferritin light chain (Equus caballus) (UniProt P02791)
# UniProt P02791, sequence (P02791 whole entry, looked up): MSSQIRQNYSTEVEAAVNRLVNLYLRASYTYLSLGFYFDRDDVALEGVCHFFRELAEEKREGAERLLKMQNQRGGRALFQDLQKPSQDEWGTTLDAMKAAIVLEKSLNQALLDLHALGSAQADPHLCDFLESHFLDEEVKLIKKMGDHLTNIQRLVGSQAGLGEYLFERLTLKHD
# Assay: qHTS Assay for Identification of Novel General Anesthetics; further: nearly all actives have a fitted effect of over 20% in size
# Details: apoferritin/1-aminoanthracene competitive binding, fluorescence; series mostly up to 77.5 µM
# How it was run: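 Horse-spleen apoferritin (10 uM) was mixed with 50% saturated 1-aminoanthracene in PBS, exposed to compounds for 10 min at room temperature, and read for fluorescence (ex 380 nm, em 535 nm). Competitive displacement was fitted with a four-parameter Hill equation.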
# Potency means the concentration at half of the fitted maximal effect; tags describe the fitted curve by direction and shape.
row,Structure (SMILES),Potency
1,CC(C)CCN(C(=O)CNC(=O)c1ccco1)C(C(=O)NC1CCCCC1)c1ccco1 (stereo not drawn),"inconclusive: 39.8 µM [inhibitor, single point]"
2,Brc1cnc2nc(SC/C=C/c3ccccc3)[nH]c2c1,inactive
3,Cc1ccc(C(=O)COC(=O)CCC(=O)Nc2cc(Cl)ccc2Cl)cc1[N+](=O)[O-],"inconclusive: 28.2 µM [inhibitor, partial curve]"
4,Cc1nnc(SCc2ccccc2)nc1/C=C/NOCc1ccc(Cl)cc1Cl,"inconclusive: 31.6 µM [inhibitor, partial curve]"
5,ClC1(Cl)CC1CSc1nnc(-c2ccncc2)o1 (stereo not drawn),"inconclusive: 12.6 µM [inhibitor, partial curve]"
6,Cc1ccccc1Cn1ccc(NC(=O)CCSc2nc(-c3ccco3)cc(C(F)(F)F)n2)n1,inactive
7,Cc1ccc(NC(=O)N2CCCCCC2)cc1C,"inconclusive: 50.1 µM [inhibitor, single point]"
8,O=C(NC1CCCCCCC1)c1ccc2c(c1)N(Cc1ccc(F)cc1)C(=O)CS2=O (stereo not drawn),"inconclusive: 39.8 µM [inhibitor, single point]"
9,CCc1ccc2nc(N(Cc3cccnc3)C(=O)c3ccc(C#N)cc3)sc2c1,"inconclusive: 50.1 µM [inhibitor, single point]"
10,CC(=O)Nc1ccc(NC(=O)c2oc3c(c2C)-c2nn(Cc4ccccc4Cl)cc2CC3)cc1,inactive
11,CCOC(=O)c1ccc(NC(=O)Cn2nc3c4ccccc4n(Cc4cccc(F)c4)cc-3c2=O)cc1,"inconclusive: 17.8 µM [inhibitor, partial curve]"
12,CN1C(=O)CSc2ccc(NC(=O)NCCC3=CCCCC3)cc21,active: 22.4 µM
13,COc1cc(CN2CCCCC2C(=O)Nc2ccc(Oc3ccccc3)nc2)ccc1O (stereo not drawn),"inconclusive: 17.8 µM [inhibitor, partial curve]"
14,O=C(CCc1ccccc1)Nc1ccc(Cl)cn1,"inconclusive: 20 µM [inhibitor, partial curve]"
15,Cc1ccc(Nc2ccc3cc(S(=O)(=O)N4CCC(C)CC4)ccc3n2)c(Cl)c1,inactive
16,N/C(=N\OC(=O)COc1ccc2ccccc2c1)c1ccccn1,"inconclusive: 31.6 µM [inhibitor, partial curve]"
17,CCN(CC)C(=O)c1ccc(Nc2nnc(-c3ccc(O)cc3)c3ccccc23)cc1,inactive
18,CCc1ccc2c(CN3CCN(S(=O)(=O)c4ccc5c(c4)OCCO5)CC3)cc(=O)oc2c1,"inconclusive: 12.6 µM [inhibitor, partial curve]"
19,C=CCNc1nc(C)c(CNc2c(C)cc(C)cc2C)nc1C#N,"inconclusive: 39.8 µM [inhibitor, single point]"
20,C=CCNc1nc2c(c(=O)n(C)c(=O)n2C)n1Cc1ccc(F)cc1,inactive
21,COc1cc(C2Nc3ccccc3-c3cc(C)nn32)ccc1O (stereo not drawn),"inconclusive: 39.8 µM [inhibitor, single point]"
22,Cc1cc(Cl)c2oc(C(=O)NC3CCC(O)CC3)c(C)c2c1 (stereo not drawn),"inconclusive: 35.5 µM [inhibitor, partial curve]"

row,Structure (SMILES),Potency
1,CCC(C)(C)n1nnnc1C(c1cc2cc(C)cc(C)c2[nH]c1=O)N1CCN(C(=O)c2ccco2)CC1 (stereo not drawn),inactive
2,COc1ccc(-c2nnc3n2N=C(c2ccccc2OC)CS3)cc1OC,"inconclusive: 44.7 µM [inhibitor, single point]"
3,Cc1ccc(C2=NS(=O)(=O)N(C)C(C(=O)Nc3ccc4c(c3)OCO4)=C2)cc1,"inconclusive: 20 µM [inhibitor, partial curve]"
4,O=C1c2ccccc2C(=O)N1CCCc1c[nH]c2ccccc12,"inconclusive: 44.7 µM [inhibitor, single point]"
5,CC(C)CCCC(C)NS(=O)(=O)Cc1ccccc1 (stereo not drawn),"inconclusive: 44.7 µM [inhibitor, partial curve]"
6,COCCn1c(SCC(=O)Nc2cc(Cl)ccc2OC)nc2c([nH]c3ccccc32)c1=O,"inconclusive: 11.2 µM [inhibitor, single point]"
7,CC1=NOC(=O)/C1=C/c1ccc(-c2ccc(Cl)cc2)o1,"inconclusive: 15.8 µM [inhibitor, partial curve]"
8,COc1cc(CNCc2ccc(C(=O)O)cc2)ccc1OCc1ccc(F)cc1,inactive
9,CC1(C)C2C/C(=N\O)C(C)(/[N+]([O-])=C/c3cccc([N+](=O)[O-])c3)CC21 (stereo not drawn),"inconclusive: 17.8 µM [inhibitor, partial curve]"
10,Cc1ccnc(NCc2cccc3ccccc23)c1,"inconclusive: 25.1 µM [inhibitor, single point]"
11,CCN(CC)c1ncnc2c1cnn2-c1cc(Cl)ccc1C,inactive
12,CCCn1c(N)c(C(c2ccc(OC)cc2)N2CCN(c3ccccc3)CC2)c(=O)[nH]c1=O (stereo not drawn),"inconclusive: 31.6 µM [inhibitor, single point]"
13,COc1ccc2cc(C(=O)C3CCCN(C(=O)c4csnn4)C3)ccc2c1 (stereo not drawn),"inconclusive: 39.8 µM [inhibitor, partial curve]"
14,Cc1cc(C)cc(NC(=O)NN2C(C)CCCC2C)c1 (stereo not drawn),"inconclusive: 25.1 µM [inhibitor, partial curve]"
15,COc1ccc2nc3c(c(-c4ccccc4)c2c1)CCC3,"inconclusive: 11.2 µM [inhibitor, partial curve]"
16,CCOC(=O)CSc1nc2sc3c(c2c(=O)n1C1CCCCC1)CCN(C)C3,inactive
17,O=[N+]([O-])c1cccnc1N1CCCCC1,"inconclusive: 39.8 µM [inhibitor, single point]"
18,C=CCn1c(SCC(=O)c2ccc(OC)cc2)nnc1-c1ccc2c(c1)OCO2,"inconclusive: 56.2 µM [inhibitor, single point]"
19,Cn1cccc1Cc1nnc(SCC(=O)Nc2ccc3c(c2)OCCO3)n1-c1ccc(F)cc1,"inconclusive: 31.6 µM [inhibitor, single point]"
20,CCn1cc(C(=O)NCc2ccc3c(c2)OCO3)c(=O)c2cc(F)c(N3CCN(C)CC3)cc21,"inconclusive: 11.2 µM [inhibitor, partial curve]"
21,O=[N+]([O-])c1ccc2c(c1)/C(=N\O)c1ccccc1-2,inactive
